Screen size: about 310,000 compounds; about 11,000 (3.5%) were called active. Inconclusive means that the source gave no clear call. Such entries were picked first, then a sample of the others. Calls come from the whole dose curve; as a rule, active = well fitted inhibition curve with a large enough effect; inconclusive = small, poorly fitted or top-dose-only effect, or effect the other way; inactive = flat fitted curve, though single readings scatter. Potencies of inconclusive entries are left out as doubtful fits. Some compounds were tested as several samples or in several runs, with calls that do not always agree.
Test: VP16 counterscreen qHTS for inhibitors of ROR gamma transcriptional activity;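 note: Gal4-VP16 expression switched on by copper sulfate through the metallothionein promoter; nearly all actives have a fitted effect of over 50% in size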
Conditions: Drosophila S2 Gal4-VP16 UAS-luciferase, luminescence, 20 h; activity, negative = inhibition: at 53.6 µM (top of the series)
In the case of `Cc1ccccc1CN1CCN(CC(=O)NC(C)c2ccccc2)CC1` (stereo not given), the “activity, negative = inhibition” value is reported as inactive: -2.73%.
In the case of `CC(C)NC(=S)N/N=C/c1sc(N2CCCCC2)nc1-c1cccs1`, the Potency is reported as inconclusive [inhibitor, full curve, poor fit].
For `O=C(C1CCCN(S(=O)(=O)c2ccccc2)C1)N1CCN(c2ncccn2)CC1` (stereo not given), the Potency was inconclusive [inhibitor, single point].
For `COc1cc(C(=O)NCCCc2nc3ccccc3n2Cc2cc(C)ccc2C)cc(OC)c1OC`, the Potency was inconclusive [inhibitor, partial curve, poor fit].
In the case of `Nc1cccc2c1C(=O)N(C(=O)/C=C/c1cccc(Br)c1)C2=O`, the Potency is reported as inconclusive [inhibitor, single point].
For `O=C1CC(Sc2nnnn2C2CCCCC2)C(=O)N1c1ccccc1` (stereo not given), the Potency was active: 5.01 µM.
For `N#Cc1nc(-c2ccc(F)cc2)oc1NCc1ccccc1`, the Potency was inconclusive [inhibitor, single point].
In the case of `CC1CCN(c2nc(CN3CCCCC3)nc3scc(-c4ccccc4)c23)CC1`, the Potency is reported as active: 22.4 µM.
With `Cc1ccc(COc2ccccc2-c2cc(C(=O)N/N=C/c3cccnc3)[nH]n2)cc1` the Potency was inconclusive [inhibitor, single point].
For `Cc1ccc(C(=O)N/N=c2\sc3ccccc3n2C)cc1`, the Potency was inconclusive [inhibitor, single point].
For `O=c1oc(-c2ccccc2F)nc2c1cnn2-c1ccccc1`, the Potency was inconclusive [inhibitor, single point].
With `O=C(CS(=O)(=O)c1c[nH]c2ccccc12)N1CCc2ccccc21` the Potency was inconclusive [activator, partial curve].
In the case of `COc1cccc(C(=O)CC(=O)C(=O)Nc2ccc(C)cc2Cl)c1`, the Potency is reported as inconclusive [inhibitor, single point].
In the case of `O=C(COc1ccc(Cl)cc1)N1CCN(C(=O)c2cccs2)CC1`, the Potency is reported as active: 17.8 µM.
In the case of `O=C(NC(=S)Nc1ccccc1N1CCOCC1)c1ccco1`, the Potency is reported as active: 14.1 µM.
In the case of `CCOc1ccc(-c2nc(N)ncc2-c2ccccc2)c(O)c1`, the Potency is reported as inconclusive [inhibitor, single point].
With `c1ccc2c(N3CCCCC3)ncnc2c1` the “activity, negative = inhibition” value was inactive: -4.98%.
With `CCOC(=O)c1nn(-c2cccc(OC)c2)c2nc(Nc3ccccc3)cc(=O)n12` the Potency was inconclusive [inhibitor, single point].
For `O=C1NCN(c2ccccc2)C12CCN(CCCC(c1ccc(F)cc1)c1ccc(F)cc1)CC2`, the Potency was active: 17.8 µM.
With `COc1ccc(Cn2c(O)c(C=Nc3ccccc3C(=O)O)c3ccccc3c2=O)cc1` the “activity, negative = inhibition” value was inactive: -3.84%.
For `Oc1ccc2ccccc2c1N=Nc1ccccn1`, the Potency was inconclusive [inhibitor, full curve, poor fit].
With `O=C(C1CC(c2ccccc2O)=NO1)N1CCc2ccccc2C1` (stereo not given) the Potency was inconclusive [activator, single point].
With `CCCSc1nnc(CNC(=O)C23CC4CC(CC(C4)C2)C3)n1Cc1ccccc1` the “activity, negative = inhibition” value was inactive: -4.8%.
With `CCOc1ccc(NC(=S)N(CCN2CCOCC2)Cc2ccc3c(c2)CCCN3CC)cc1` the Potency was inconclusive [inhibitor, single point].
In the case of `S=C1NC(c2ccccc2)=NCN1c1ccc(Br)cc1`, the Potency is reported as active: 20 µM.
With `Cc1ccc(NC(=O)c2ccccc2OCC(=O)c2ccccc2)cc1` the “activity, negative = inhibition” value was inactive: 12.6%.
With `Oc1ccc(-c2csc(-c3c[nH]c4ccccc34)n2)c(O)c1` the Potency was inconclusive [inhibitor, partial curve].
For `CCOC(=O)Cc1cc(-c2ccc(F)cc2)nc2ccc3ccccc3c12`, the “activity, negative = inhibition” value was inactive: -11.5%.
For `Cc1ccc(C(=O)Oc2ccc([N+](=O)[O-])cc2)cc1S(=O)(=O)N1CCCCCC1`, the Potency was inconclusive [inhibitor, single point].
In the case of `COC(=O)c1ccccc1OCCOCCOc1cccc2cccnc12`, the Potency is reported as inconclusive [inhibitor, single point].
For `Cc1ccc(CSc2ncnc3c2cnn3-c2ccc(C)cc2)cc1`, the Potency was inconclusive [inhibitor, partial curve].
In the case of `COc1cc([N+](=O)[O-])ccc1NC(=O)CC1SC(=Nc2ccc(F)cc2)N(CCC2=CCCCC2)C1=O` (stereo not given), the Potency is reported as inconclusive [inhibitor, single point].
In the case of `COC(=O)c1ccccc1NC(=O)CSCC(=O)Nc1ccccc1OC`, the “activity, negative = inhibition” value is reported as inactive: -9.26%.
In the case of `c1coc(Cn2c(SCc3nc4ccccc4[nH]3)nnc2-c2cnccn2)c1`, the “activity, negative = inhibition” value is reported as inactive: -7.98%.
In the case of `O=C1c2ccccc2C(=O)N1CCc1nc(-c2ccc(Cl)cc2)no1`, the “activity, negative = inhibition” value is reported as inactive: 11.5%.
For `Cc1cc(C)cc(NC(=S)N2CCC(c3nc4ccccc4s3)CC2)c1`, the Potency was active: 11.2 µM.
For `CSc1nnc2c3ccccc3n(CCc3ccccc3)c2n1`, the “activity, negative = inhibition” value was inactive: 2.89%.
For `Cc1ccc(NC(=O)C2CCN(S(=O)(=O)c3ccc4c(c3)NC(=O)C(C)S4)CC2)c(Cl)c1` (stereo not given), the Potency was inconclusive [inhibitor, single point].
With `O=C(c1cccs1)N1CCN(c2nnc(-c3ccccc3)c3ccccc23)CC1` the Potency was inconclusive [inhibitor, single point].
With `O=C(CSC1CS(=O)(=O)c2cc([N+](=O)[O-])ccc21)NNC(=O)c1ccc(Cl)cc1` (stereo not given) the Potency was inconclusive [inhibitor, single point].
In the case of `CCN(CC)c1ccc(/C=N/NC(=O)CNC(=O)C2COc3ccccc3O2)c(O)c1` (stereo not given), the Potency is reported as active: 2.82 µM.
With `COCc1ccc(C(=O)N2CCCC(CCC(=O)NCc3ccccc3F)C2)o1` (stereo not given) the “activity, negative = inhibition” value was inactive: 5.62%.
With `COc1ccc(CN(C)Cc2nc(Cc3ccccc3Cl)no2)cc1OC` the Potency was inconclusive [inhibitor, single point].
With `CN(C)C(=O)c1cc(C(=O)c2ccc(F)cc2C(F)(F)F)c[nH]1` the “activity, negative = inhibition” value was inactive: -6.15%.
With `CC(C)(C)OC(=O)N1CCC[C@H]1C(=O)Nc1ccc(C#N)cc1` the “activity, negative = inhibition” value was inactive: 0.864%.
With `CCCCNC(=O)CSc1nc2n[nH]c(C)c2c(=N)n1-c1cccc(Cl)c1C` the Potency was inconclusive [inhibitor, single point].
In the case of `CCCc1c(O)c2ccccc2n(-c2ccccc2)c1=O`, the “activity, negative = inhibition” value is reported as inactive: -8.32%.
For `Cc1ccccc1C(=O)NC(=S)Nc1sc2c(c1C#N)CCC(C)C2` (stereo not given), the Potency was inconclusive [inhibitor, single point].
For `CSc1ccccc1NC(=O)c1ccc2c(c1)CCN2S(C)(=O)=O`, the “activity, negative = inhibition” value was inactive: -7.46%.
For `Cc1c(NC(=S)N/N=C/C=C/c2ccccc2)c(=O)n(-c2ccccc2)n1C`, the Potency was active: 0.794 µM.
In the case of `Cc1ccc(-c2nnn(CCC(=O)Nc3ccc4c(c3)OCO4)n2)cc1`, the Potency is reported as inconclusive [inhibitor, single point].
For `COc1ccc(NC(=S)/N=C(\N)Nc2nc(C)c3ccc(C)cc3n2)cc1`, the Potency was active: 2 µM.
In the case of `O=C(Nc1ccccc1)c1ccc(C(=O)Nc2ccccc2)nc1`, the “activity, negative = inhibition” value is reported as inactive: -14.4%.
For `NNc1nc2c(F)cc(F)cc2s1`, the Potency was active: 17.8 µM.
For `CCN(CC)CCn1c(NC(=O)c2ccccc2O)nc2ccccc21`, the Potency was active: 5.01 µM.
For `O=C(NNC(=O)C1CCN(S(=O)(=O)c2ccc(Cl)cc2)CC1)c1ccc(S(=O)(=O)N2CCCCC2)cc1`, the Potency was inconclusive [activator, single point].
With `Cc1ccc(C(=O)NC(=S)N2CC(C)OC(C)C2)cc1[N+](=O)[O-]` (stereo not given) the Potency was active: 0.708 µM.
With `Cc1cc2nc(-c3cccnc3SCC(=O)NCc3ccco3)[nH]c2cc1C` the Potency was active: 12.6 µM.
For `O=[N+]([O-])c1nn(-c2ccc3c(c2)OCCO3)n(O)c1=Nc1ccccc1`, the Potency was inconclusive [inhibitor, single point].
With `Cc1cccnc1CC(C)NC(=O)c1cc(COc2cncc(Cl)c2)on1` (stereo not given) the “activity, negative = inhibition” value was inactive: 15.6%.
With `CC1CCN(C(=O)CCN2C(=O)/C(=C/c3cccs3)SC2=S)CC1` the Potency was inconclusive [inhibitor, partial curve].
For `CC(C)(C)C1C=C(Sc2ccccc2)C(=O)O1` (stereo not given), the Potency was inconclusive [inhibitor, single point].
For `Cc1ccc(NC(=S)NCc2ccc3c(c2)OCO3)cc1C`, the Potency was inconclusive [inhibitor, single point].
With `CC(C)CNC(=S)N1CCC(c2nc(-c3ccc(F)cc3)no2)CC1` the Potency was inconclusive [inhibitor, single point].
In the case of `S=C(NCc1ccccc1)NCc1ccccc1Cl`, the Potency is reported as active: 20 µM.
In the case of `O=C1Nc2ccc(Br)cc2C1(O)c1ccccc1` (stereo not given), the “activity, negative = inhibition” value is reported as inactive: 3.6%.
In the case of `O=C(NCc1cccs1)c1ccc([N+](=O)[O-])cc1Cl`, the Potency is reported as inconclusive [activator, partial curve, poor fit].
For `CCN(Cc1ccncc1)C(=S)Nc1c(C)cccc1C`, the Potency was inconclusive [inhibitor, single point].
For `O=C1CN(C(=O)COC(=O)c2cccc(S(=O)(=O)NCc3ccccc3)c2)c2ccccc2N1`, the Potency was inconclusive [inhibitor, single point].
For `Cc1ccc(NC(=O)C(=O)Nc2ccccn2)cc1`, the Potency was active: 5.62 µM.
With `Cc1ccc(C(=O)N2CCN(c3ccccn3)CC2)cc1` the “activity, negative = inhibition” value was inactive: 6.76%.
For `CSc1nc(Cl)cc(Nc2ccccc2N)n1`, the “activity, negative = inhibition” value was inactive: -9.6%.
With `CCc1ccccc1NCc1cc(=O)oc2cc(C)ccc12` the Potency was inconclusive [inhibitor, single point].
In the case of `CCOC(=O)C1(CCOc2ccccc2)CCN(Cc2cc(OC)cc(OC)c2)CC1`, the Potency is reported as inconclusive [inhibitor, single point].
With `COc1ccc(CCN(C)C(=O)Cc2ccc(-c3ccccc3)cc2)cc1OC` the Potency was inconclusive [inhibitor, single point].
% is set by controls: 0 for no effect and ±100 for the full control effect; potency is the fitted concentration of half-maximal effect; tags give direction and shape of the fitted curve.
